Molecular target: human IL-1R-I on Normal Human Dermal Fibroblasts (NHDF) cells (human, UniProt P14778)
Experiment: cell-based or functional assay

B1: PSI0538 (Fc fusion)
chain: AEAKYAKELEAIQMEIFHLPNLTRRQYTAFIRKLLDDPSQSSELLSEAKKLSESQAPKASGGGGSGGGGS[sequence of human IgG1 Fc omitted]
- IC50 of inhibition of IL-1β induced IL-6 release in NHDF cells: 0.07 nM

Reference: patent US12116397B2, “IL-IR-I binding polypeptide” (Swedish Orphan Biovitrum AB (publ), dated 2024)
